{
  "source": "patent US11366114B2",
  "about": "“Genetically encoded fluorescent sensors for detecting ligand bias and intracellular signaling through cAMP pathways” (MONTANA MOLECULAR LLC, priority 2013, dated 2022)",
  "molecules": {"B1": {"name": "Library 2-2 A11: cAMP sensor; SEQID 19 in Table 1, SEQ ID NO: 20 in Table 3 (protein)", "chain": "MVAAHAAHSSSSAEWIACLDKRPLERSSEDVDIIFTRLKEVKAFEKFHPNLLHQICLCGYYENLEKGITLFRQGDIGTNWYAVLAGSLDVKVSETSSHQDAVTICTLGIGTAFGESILDNTPRHATIVTRESSELLRIEQKDFKALWEKYRQYMAGLLAPPYGVMETGSNNDRIPDKENTPLIEPHVPLRPANTITKVPSEKILRAGKILRNAILSRAPHMIRDRKYHLKTYRQCCVGTELVDWMMQQTPCVHSRTQAVGMWQVLLEDGVLNHVDQEHHFQDKYLFYRFLDDEHEDAPLPTEEEKKECDEELQDTMLLLSQMGPDAHMRMILRKPPGQRTVDDLEIIYEELLHIKALSHLSTTVKRELAGVLIFESHAKGGTVLFNQGEEGTSWYIILKGSVNVVIYGKGVVCTLHEGDDFGKLALVNDAPRAASIVLREDNCHFLRVDKEDFNRILRLENVYIKADKQKNGIKANFKIRHNIEDGGVQLAYHYQQNTPIGDGPVLLPDNHYLSVQSILSKDPNEKRDHMVLLEFVTAAGITLGMDELYKGGTGGSMVSKGEELFTGVVPIQVELDGDVNGHKFSVSGEGEGDATYGKLTLKFICTTGKLPVPWPTLVTTLTYGVQCFSRYPDHMKQHDFFKSAMPEGYIQERTIFFKDDGNYKTRAEVKFEGDTLVNRIELKGIDFKEDGNILGHKLEYNTRNTVRLKEHDQDVLVLEKVPAGNRASNQGNSQPQQKYTVMSGTPEKILEHFLETIRLEATLNEATDSVLNDFIMMHCVFMPNTQLCPALVAHYHAQPSQGTEQEKMDYALNNKRRVIRLVLQWAAMYGDLLQEDDVSMAFLEEFYVSVSDDARMIAALKEQLPELEKIVKQISEDAKAPQKKHKVLLQQFNTGDERAQKRQPIRGSDEVLFKVYCMDPTYTTIRVPVATSVKEVISAVADKLGSGEGLIIVKMSSGGEKVVLKPNDVSVFMTLTINGRLFACPREQFDSLTPLPEQEGPTVGTVGTFELMSSKDLAYQMTIYDWELFNCVHELELIYHTFGRHNFKKTTANLDLFLRRFNEIQFWVVTEICLCSQLSKRVQLLKKFIKIAAHCKEYKNLNSFFAIVMGLSNVAVSRLALTWEKLPSKFKKFYAEFESLMDPSRNHRAYRLTVAKLEPPLIPFMPLLIKDMTFTHEGNKTFIDNLVNFEKMRMIANTARTVRYYRSQPFNPDAAQANKNHQDVRSYVRQLNVIDNQRTLSQMSHRLEPRRP"}, "B2": {"name": "Library 2-2 D1: cAMP sensor; SEQID 18 in Table 1, SEQ ID NO: 19 in Table 3 (protein)", "chain": "MVAAHAAHSSSSAEWIACLDKRPLERSSEDVDIIFTRLKEVKAFEKFHPNLLHQICLCGYYENLEKGITLFRQGDIGTNWYAVLAGSLDVKVSETSSHQDAVTICTLGIGTAFGESILDNTPRHATIVTRESSELLRIEQKDFKALWEKYRQYMAGLLAPPYGVMETGSNNDRIPDKENTPLIEPHVPLRPANTITKVPSEKILRAGKILRNAILSRAPHMIRDRKYHLKTYRQCCVGTELVDWMMQQTPCVHSRTQAVGMWQVLLEDGVLNHVDQEHHFQDKYLFYRFLDDEHEDAPLPTEEEKKECDEELQDTMLLLSQMGPDAHMRMILRKPPGQRTVDDLEIIYEELLHIKALSHLSTTVKRELAGVLIFESHAKGGTVLFNQGEEGTSWYIILKGSVNVVIYGKGVVCTLHEGDDFGKLALVNDAPRAASIVLREDNCHFLRVDKEDFNRILRLENVYIKADKQKNGIKANFKIRHNIEDGGVQLAYHYQQNTPIGDGPVLLPDNHYLSVQSILSKDPNEKRDHMVLLEFVTAAGITLGMDELYKGGTGGSMVSKGEELFTGVVPIQVELDGDVNGHKFSVSGEGEGDATYGKLTLKFICTTGKLPVPWPTLVTTLTYGVQCFSRYPDHMKQHDFFKSAMPEGYIQERTIFFKDDGNYKTRAEVKFEGDTLVNRIELKGIDFKEDGNILGHKLEYNTRILRDVEANTVRLKEHDQDVLVLEKVPAGNRASNQGNSQPQQKYTVMSGTPEKILEHFLETIRLEATLNEATDSVLNDFIMMHCVFMPNTQLCPALVAHYHAQPSQGTEQEKMDYALNNKRRVIRLVLQWAAMYGDLLQEDDVSMAFLEEFYVSVSDDARMIAALKEQLPELEKIVKQISEDAKAPQKKHKVLLQQFNTGDERAQKRQPIRGSDEVLFKVYCMDPTYTTIRVPVATSVKEVISAVADKLGSGEGLIIVKMSSGGEKVVLKPNDVSVFMTLTINGRLFACPREQFDSLTPLPEQEGPTVGTVGTFELMSSKDLAYQMTIYDWELFNCVHELELIYHTFGRHNFKKTTANLDLFLRRFNEIQFWVVTEICLCSQLSKRVQLLKKFIKIAAHCKEYKNLNSFFAIVMGLSNVAVSRLALTWEKLPSKFKKFYAEFESLMDPSRNHRAYRLTVAKLEPPLIPFMPLLIKDMTFTHEGNKTFIDNLVNFEKMRMIANTARTVRYYRSQPFNPDAAQANKNHQDVRSYVRQLNVIDNQRTLSQMSHRLEPRR"}, "B3": {"name": "Library 2-1 C2: cAMP sensor; SEQID 14 in Table 1, SEQ ID NO: 15 in Table 3 (protein)", "chain": "MVAAHAAHSSSSAEWIACLDKRPLERSSEDVDIIFTRLKEVKAFEKFHPNLLHQICLCGYYENLEKGITLFRQGDIGTNWYAVLAGSLDVKVSETSSHQDAVTICTLGIGTAFGESILDNTPRHATIVTRESSELLRIEQKDFKALWEKYRQYMAGLLAPPYGVMETGSNNDRIPDKENTPLIEPHVPLRPANTITKVPSEKILRAGKILRNAILSRAPHMIRDRKYHLKTYRQCCVGTELVDWMMQQTPCVHSRTQAVGMWQVLLEDGVLNHVDQEHHFQDKYLFYRFLDDEHEDAPLPTEEEKKECDEELQDTMLLLSQMGPDAHMRMILRKPPGQRTVDDLEIIYEELLHIKALSHLSTTVKRELAGVLIFESHAKGGTVLFNQGEEGTSWYIILKGSVNVVIYGKGVVCTLHEGDDFGKLALVNDAPRAASIVLREDNCHFLRVDKEDFNRILRDVLENVYIKADKQKNGIKANFKIRHNIEDGGVQLAYHYQQNTPIGDGPVLLPDNHYLSVQSILSKDPNEKRDHMVLLEFVTAPGITLGMDELYKGGTGGSMVSKGEELFTGVVPIQVELDGDVNGHKFSVSGEGEGDATYGKLTLKFICTTGKLPVPWPTLVTTLTYGVQCFSRYPDHMKQHDFFKSAMPEGYIQERTIFFKDDGNYKTRAEVKFEGDTLVNRIELKGIDFKEDGNILGHKLEYNTRILRDVEANTVRLKEHDQDVLVLEKVPAGNRASNQGNSQPQQKYTVMSGTPEKILEHFLETIRLEATLNEATDSVLNDFIMMHCVFMPNTQLCPALVAHYHAQPSQGTEQEKMDYALNNKRRVIRLVLQWAAMYGDLLQEDDVSMAFLEEFYVSVSDDARMIAALKEQLPELEKIVKQISEDAKAPQKKHKVLLQQFNTGDERAQKRQPIRGSDEVLFKVYCMDPTYTTIRVPVATSVKEVISAVADKLGSGEGLIIVKMSSGGEKVVLKPNDVSVFMTLTINGRLFACPREQFDSLTPLPEQEGPTVGTVGTFELMSSKDLAYQMTIYDWELFNCVHELELIYHTFGRHNFKKTTANLDLFLRRFNEIQFWVVTEICLCSQLSKRVQLLKKFIKIAAHCKEYKNLNSFFAIVMGLSNVAVSRLALTWEKLPSKFKKFYAEFESLMDPSRNHRAYRLTVAKLEPPLIPFMPLLIKDMTFTHEGNKTFIDNLVNFEKMRMIANTARTVRYYRSQPFNPDAAQANKNHQDVRSYVRQLNVIDNQRTLSQMSHRLEPRRP"}, "B4": {"name": "Library 5-1 E7: cAMP sensor; SEQID 15 in Table 1, SEQ ID NO: 16 in Table 3 (protein)", "chain": "MVAAHAAHSSSSAEWIACLDKRPLERSSEDVDIIFTRLKEVKAFEKFHPNLLHQICLCGYYENLEKGITLFRQGDIGTNWYAVLAGSLDVKVSETSSHQDAVTICTLGIGTAFGESILDNTPRHATIVTRESSELLRIEQKDFKALWEKYRQYMAGLLAPPYGVMETGSNNDRIPDKENTPLIEPHVPLRPANTITKVPSEKILRAGKILRNAILSRAPHMIRDRKYHLKTYRQCCVGTELVDWMMQQTPCVHSRTQAVGMWQVLLEDGVLNHVDQEHHFQDKYLFYRFLDDEHEDAPLPTEEEKKECDEELQDTMLLLSQMGPDAHMRMILRKPPGQRTVDDLEIIYEELLHIKALSHLSTTVKRELAGVLIFESHAKGGTVLFNQGEEGTSWYIILKGSVNVVIYGKGVVCTLHEGDDFGKLALVNDAPRAASIVLREDNCHFLRVDKEDFNRILRRANVYIKADKQKNGIKANFKIRHNIEDGGVQLAYHYQQNTPIGDGPVLLPDNHYLSVQSILSKDPNEKRDHMVLLEFVTAAGITLGMDELYKGGTGGSMVSKGEELFTGVVPIQVELDGDVNGHKFSVSGEGEGDATYGKLTLKFICTTGKLPVPWPTLVTTLTYGVQCFSRYPDHMKQHDFFKSAMPEGYIQERTIFFKDDGNYKTRAEVKFEGDTLVNRIELKGIDFKEDGNILGHKLEY"}, "B5": {"name": "Library 2-2 G4: cAMP sensor; SEQID 13 in Table 1, SEQ ID NO: 14 in Table 3 (protein)", "chain": "MVAAHAAHSSSSAEWIACLDKRPLERSSEDVDIIFTRLKEVKAFEKFHPNLLHQICLCGYYENLEKGITLFRQGDIGTNWYAVLAGSLDVKVSETSSHQDAVTICTLGIGTAFGESILDNTPRHATIVTRESSELLRIEQKDFKALWEKYRQYMAGLLAPPYGVMETGSNNDRIPDKENTPLIEPHVPLRPANTITKVPSEKILRAGKILRNAILSRAPHMIRDRKYHLKTYRQCCVGTELVDWMMQQTPCVHSRTQAVGMWQVLLEDGVLNHVDQEHHFQDKYLFYRFLDDEHEDAPLPTEEEKKECDEELQDTMLLLSQMGPDAHMRMILRKPPGQRTVDDLEIIYEELLHIKALSHLSTTVKRELAGVLIFESHAKGGTVLFNQGEEGTSWYIILKGSVNVVIYGKGVVCTLHEGDDFGKLALVNDAPRAASIVLREDNCHFLRVDKEDFNRILRLENVYIKADKQKNGIKANFKIRHNIEDGGVQLAYHYQQNTPIGDGPVLLPDNHYLSVQSILSKDPNEKRDHMVLLEFVTAAGITLGMDELFKGGTGGSMVSKGEELFTGVVPIQVELDGDVNGHKFSVSGEGEGDATYGKLTLKFICTTGKLPVPWPTLVTTLTYGVQCFSRYPDHMKQHDFFKSAMPEGYIQERTIFFKDDGNYKTRAEVKFEGDTLVNRIELKGIDFKEDGNILGHKLEYNTRVEANTVRLKEHDQDVLVLEKVPAGNRASNQGNSQPQQKYTVMSGTPEKILEHFLETIRLEATLNEATDSVLNDFIMMHCVFMPNTQLCPALVAHYHAQPSQGTEQEKMDYALNNKRRVIRLVLQWAAMYGDLLQEDDVSMAFLEEFYVSVSDDARMIAALKEQLPELEKIVKQISEDAKAPQKKHKVLLQQFNTGDERAQKRQPIRGSDEVLFKVYCMDPTYTTIRVPVATSVKEVISAVADKLGSGEGLIIVKMSSGGEKVVLKPNDVSVFMTLTINGRLFACPREQFDSLTPLPEQEGPTVGTVGTFELMSSKDLAYQMTIYDWELFNCVHELELIYHTFGRHNFKKTTANLDLFLRRFNEIQFWVVTEICLCSQLSKRVQLLKKFIKIAAHCKEYKNLNSFFAIVMGLSNVAVSRLALTWEKLPSKFKKFYAEFESLMDPSRNHRAYRLTVAKLEPPLIPFMPLLIKDMTFTHEGNKTFIDNLVNFEKMRMIANTARTVRYYRSQPFNPDAAQANKNHQDVRSYVRQLNVIDNQRTLSQMSHRLEPRRP"}},
  "data": [
    {"system": "cAMP", "assay": "Fluorescence response of cAMP sensors to isoproterenol in HEK 293 cells co-expressing the beta adrenergic receptor", "assay_type": "cell-based, human", "settings": "in response to isoproternol", "how_it_was_run": "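Green cAMP-sensor fluorescence was measured at 25 °C in DPBS, by microscopy or plate reader (488/20 nm excitation, 530/20 nm emission), upon addition of isoproterenol, forskolin, IBMX or DMSO. Cells were HEK 293 or 293T transiently expressing sensor plus beta adrenergic receptor for 24-48 h.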", "units": {"Relative Change in Fluorescence": "%"}, "values": [
      {"molecule": "B1", "Relative Change in Fluorescence": 33},
      {"molecule": "B2", "Relative Change in Fluorescence": "−33"},
      {"molecule": "B3", "Relative Change in Fluorescence": 35},
      {"molecule": "B4", "Relative Change in Fluorescence": "−34"},
      {"molecule": "B5", "Relative Change in Fluorescence": "−36"}
    ]}
  ]
}
